Measured values as given in the supplement of paper PMC10369915.
Some of the results follow. Rule as the data show it: active = 3.2 or more and inactive = the rest. The signal is at background level for most entries.

B1: ANK1_HUMAN_1073 (peptide)
chain: MSRLCQDYDTIGPEG
B2: MMP1_HUMAN_360_YA (peptide)
chain: GQNVLHGYPKDIASS
B3: MET_HUMAN_1356_YA (peptide)
chain: AVHVNATYVNVKCVA
B4: MET_HUMAN_1365 (peptide)
chain: NVKCVAPYPSLLSSE
B5: MCM3_HUMAN_708 (peptide)
chain: DGDSYDPYDFSDTEE
B6: MET_HUMAN_1230 (peptide)
chain: FGLARDMYDKEYYSV
B7: MGRN1_HUMAN_411_YA (peptide)
chain: AIPSAPLYEEITASG
B8: MIXL1_HUMAN_20 (peptide)
chain: EGAAFPAYRAPHAGG
B9: MET_HUMAN_1349 (peptide)
chain: STFIGEHYVHVNATY
B10: MATR3_HUMAN_202 (peptide)
chain: SLNPVLDYDHGSRSQ
B11: MCM3_HUMAN_708_YA (peptide)
chain: DGDSADPYDFSDTEE
B12: MK09_HUMAN_185_YA (peptide)
chain: TNFMMTPYVVTRAAR
B13: ANDR_HUMAN_552_YA (peptide)
chain: DHVLPIDYAFPPQKT
B14: MILR1_HUMAN_338 (peptide)
chain: SYKSGYVYSELNFGG
B15: MDM2_HUMAN_405 (peptide)
chain: STSSSIIYSSQEDVK
B16: MK14_HUMAN_182 (peptide)
chain: TDDEMTGYVATRWYR
B17: MERTK_HUMAN_749 (peptide)
chain: FGLSKKIYSGDYYRQ
B18: ANDR_HUMAN_916 (peptide)
chain: SGKVKPIYFHTQGGG

Target: SHP2 C-SH2 domain E139D
Test: enrichment score (SH2-bound / input frequency) (ratio); bacterial display of known human phosphotyrosine sites (pTyr-Var adds point mutants) read by sequencing; higher = stronger binding; tyrosines were phosphorylated by kinases first
Details: peptide library: Human pTyr
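Also: displayed peptides selected on beads carrying the immobilized SH2 domain, with library peptides lacking any tyrosine serving as negative controls.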

Binder	enrichment score
B1	inactive: 0.856
B2	inactive: 0.691
B3	inactive: 2.01
B4	inactive: 1.06
B5	inactive: 1.4
B6	inactive: 1.02
B7	inactive: 0.656
B8	inactive: 0.811
B9	inactive: 0.987
B10	inactive: 0.72
B11	inactive: 0.989
B12	inactive: 0.938
B13	inactive: 0.564
B14	inactive: 2.64
B15	inactive: 0.62
B16	inactive: 0.827
B17	inactive: 1.34
B18	inactive: 2.59

Target: SHP2 C-SH2 domain wild-type
Test: as above
Details: peptide library: Human pTyr

Binder	enrichment score
B1	inactive: 0.803
B2	inactive: 0.525
B3	inactive: 1.58
B4	inactive: 0.919
B5	inactive: 1.16
B6	inactive: 0.891
B7	inactive: 0.518
B8	inactive: 0.652
B9	inactive: 1.1
B10	inactive: 0.51
B11	inactive: 0.924
B12	inactive: 0.787
B13	inactive: 0.427
B14	active: 5.71
B15	inactive: 0.616
B16	inactive: 0.823
B17	inactive: 1.27
B18	inactive: 3

Target: SHP2 N-SH2 domain L43F
Test: as above
Details: peptide library: Human pTyr

Binder	enrichment score
B1	inactive: 0.742
B2	inactive: 0.579
B3	inactive: 1.7
B4	inactive: 1.09
B5	inactive: 1.1
B6	inactive: 0.772
B7	inactive: 0.722
B8	inactive: 0.674
B9	inactive: 1.06
B10	inactive: 0.613
B11	inactive: 1.25
B12	inactive: 0.948
B13	inactive: 0.539
B14	active: 14.7
B15	inactive: 0.638
B16	inactive: 0.752
B17	inactive: 1.03
B18	inactive: 2.49

Target: SHP2 N-SH2 domain T42A
Test: as above
Details: peptide library: Human pTyr

Binder	enrichment score
B1	inactive: 0.817
B2	inactive: 0.603
B3	inactive: 1.46
B4	inactive: 0.964
B5	inactive: 1.15
B6	inactive: 0.794
B7	inactive: 0.729
B8	inactive: 0.73
B9	inactive: 1.06
B10	inactive: 0.538
B11	inactive: 1.2
B12	inactive: 0.861
B13	inactive: 0.566
B14	active: 35.5
B15	inactive: 0.459
B16	inactive: 0.797
B17	inactive: 1.02
B18	inactive: 2.38

Target: SHP2 N-SH2 domain T52S
Test: as above
Details: peptide library: Human pTyr

Binder	enrichment score
B1	inactive: 1.33
B2	inactive: 0.647
B3	inactive: 1.99
B4	inactive: 1.12
B5	inactive: 1.27
B6	inactive: 0.975
B7	inactive: 0.807
B8	inactive: 0.662
B9	inactive: 0.927
B10	inactive: 0.673
B11	inactive: 1.49
B12	inactive: 0.766
B13	inactive: 0.615
B14	active: 9.18
B15	inactive: 0.663
B16	inactive: 0.898
B17	inactive: 1.59
B18	inactive: 3.01

Target: SHP2 N-SH2 domain wild-type
Test: as above
Details: peptide library: Human pTyr

Binder	enrichment score
B1	inactive: 1.01
B2	inactive: 0.573
B3	inactive: 1.97
B4	inactive: 1.34
B5	inactive: 1.77
B6	inactive: 1.14
B7	inactive: 0.695
B8	inactive: 0.609
B9	inactive: 1.16
B10	inactive: 0.647
B11	inactive: 1.6
B12	inactive: 1.39
B13	inactive: 0.589
B14	inactive: 2.8
B15	inactive: 0.558
B16	inactive: 0.825
B17	inactive: 1.08
B18	active: 3.88
